Measurements from the supplement of paper PMC4967469.
By IC50 is meant the dose at which the fit gives 50% viability; a fit beyond the top or the lowest dose is shown as a bound at that dose. AUC, from the same fit, is the share of area under the viability curve across the 256-fold dose range; it is 1 without any effect and falls as sensitivity rises. For part of these data: The top dose, if marked as inferred, was derived from the fitted curves, not read from the paper.

Experiments:
Experiment in all cases: Viability of human cancer cell lines after 72 h of drug (GDSC screen)
Z-LLNle-CHO = compound: CCCC[C@@H](C=O)NC(=O)[C@H](CC(C)C)NC(=O)[C@H](CC(C)C)NC(=O)OCc1ccccc1 [Z-LLNle-CHO]; details: top dose 2.56 µM; top dose inferred
Procedure: (§1)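 Human cancer cell lines in 384-well plates, medium with 10% serum, drug for 72 h over a 256-fold dose range (nine 2-fold or five 4-fold steps up to the top dose). Adherent lines were fixed and stained with the nucleic acid dye Syto60, suspension lines read with resazurin; signal relative to control wells, capped at 0 and 100%. One two-parameter sigmoid per drug and line, fitted in a mixed model over all curves with the slope shared within a line.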

JW-7-52-1 = compound: CCC(=O)N1CCN(c2ccc(-n3c(=O)ccc4cnc5ccc(-c6cnc7ccccc7c6)cc5c43)cc2C(F)(F)F)CC1 [JW-7-52-1]; details: top dose 1.2 µM; top dose inferred
Procedure: as §1

XL-880 = compound: COc1cc2c(Oc3ccc(NC(=O)C4(C(=O)Nc5ccc(F)cc5)CC4)cc3F)ccnc2cc1OCCCN1CCOCC1 [XL-880]; details: top dose 5.12 µM; top dose inferred
Procedure: as §1

Tubastatin A = compound: CN1CCc2c(c3ccccc3n2Cc2ccc(C(=O)NO)cc2)C1 [Tubastatin A]; details: top dose 20 µM
Procedure: as §1

Temozolomide = compound: Cn1nnc2c(C(N)=O)ncn2c1=O [Temozolomide]; details: top dose 30 µM
Procedure: as §1

IPA-3 = compound: Oc1ccc2ccccc2c1SSc1c(O)ccc2ccccc12 [IPA-3]; details: top dose 32 µM; top dose inferred
Procedure: as §1

CI-1040 = compound: O=C(NOCC1CC1)c1ccc(F)c(F)c1Nc1ccc(I)cc1Cl [CI-1040]; details: top dose 10 µM; top dose inferred
Procedure: as §1

ZG-10 = compound: CN(C)C/C=C/C(=O)Nc1ccc(C(=O)Nc2cccc(Nc3nccc(-c4cccnc4)n3)c2)cc1 [ZG-10]; details: top dose 10 µM; top dose inferred
Procedure: as §1

Rapamycin = compound: CO[C@H]1C[C@@H]2CC[C@@H](C)[C@@](O)(O2)C(=O)C(=O)N2CCCC[C@H]2C(=O)O[C@H]([C@H](C)C[C@@H]2CC[C@@H](O)[C@H](OC)C2)CC(=O)[C@H](C)/C=C(\C)[C@@H](O)[C@@H](OC)C(=O)[C@H](C)C[C@H](C)/C=C/C=C/C=C/1C [Rapamycin]; details: top dose 0.1 µM; top dose inferred
Procedure: as §1

## NCI-H847 (small cell lung carcinoma, adherent)
Z-LLNle-CHO
  AUC: 0.837
  IC50: 1270 nM
JW-7-52-1
  AUC: 0.794
  IC50: 439 nM
XL-880
  AUC: 0.422
  IC50: 204 nM
Tubastatin A
  AUC: 0.851
  IC50: 11100 nM
Temozolomide
  AUC: 0.992
  IC50: > 30000 nM
IPA-3
  AUC: 0.662
  IC50: 5100 nM
CI-1040
  AUC: 0.983
  IC50: > 10000 nM
ZG-10
  AUC: 0.658
  IC50: 1560 nM
Rapamycin
  AUC: 0.959
  IC50: > 100 nM

## NAMALWA (Burkitt lymphoma, suspension)
Z-LLNle-CHO
  AUC: 0.723
  IC50: 607 nM
JW-7-52-1
  AUC: 0.352
  IC50: 31.3 nM
XL-880
  AUC: 0.37
  IC50: 149 nM
Tubastatin A
  AUC: 0.544
  IC50: 1620 nM
Temozolomide
  AUC: 0.988
  IC50: > 30000 nM
IPA-3
  AUC: 0.747
  IC50: 8880 nM
CI-1040
  AUC: 0.872
  IC50: 7040 nM
ZG-10
  AUC: 0.666
  IC50: 1660 nM
Rapamycin
  AUC: 0.75
  IC50: 28.3 nM

## ES8 (Ewing sarcoma, adherent)
Z-LLNle-CHO
  AUC: 0.83
  IC50: 1450 nM
JW-7-52-1
  AUC: 0.328
  IC50: 25.9 nM
XL-880
  AUC: 0.585
  IC50: 536 nM
Tubastatin A
  AUC: 0.886
  IC50: 19400 nM
Temozolomide
  AUC: 0.986
  IC50: > 30000 nM
IPA-3
  AUC: 0.953
  IC50: > 32000 nM
CI-1040
  AUC: 0.929
  IC50: > 10000 nM
ZG-10
  AUC: 0.548
  IC50: 836 nM
Rapamycin
  AUC: 0.879
  IC50: 89.2 nM

## SH-4 (melanoma, adherent)
Z-LLNle-CHO
  AUC: 0.712
  IC50: 896 nM
JW-7-52-1
  AUC: 0.373
  IC50: 27.6 nM
XL-880
  AUC: 0.643
  IC50: 990 nM
Tubastatin A
  AUC: 0.963
  IC50: > 20000 nM
Temozolomide
  AUC: 0.913
  IC50: > 30000 nM
IPA-3
  AUC: 0.969
  IC50: > 32000 nM
CI-1040
  AUC: 0.49
  IC50: 578 nM
ZG-10
  AUC: 0.717
  IC50: 3670 nM
Rapamycin
  AUC: 0.416
  IC50: 3.24 nM

## SK-MEL-1 (melanoma, suspension)
Z-LLNle-CHO
  AUC: 0.963
  IC50: > 2560 nM
JW-7-52-1
  AUC: 0.871
  IC50: 880 nM
XL-880
  AUC: 0.846
  IC50: 3000 nM
Tubastatin A
  AUC: 0.982
  IC50: > 20000 nM
Temozolomide
  AUC: 0.993
  IC50: > 30000 nM
IPA-3
  AUC: 0.992
  IC50: > 32000 nM
CI-1040
  AUC: 0.516
  IC50: 688 nM
ZG-10
  AUC: 0.936
  IC50: > 10000 nM
Rapamycin
  AUC: 0.978
  IC50: > 100 nM

## LP-1 (myeloma, suspension)
Z-LLNle-CHO
  AUC: 0.979
  IC50: > 2560 nM
JW-7-52-1
  AUC: 0.55
  IC50: 100 nM
XL-880
  AUC: 0.828
  IC50: 2450 nM
Tubastatin A
  AUC: 0.888
  IC50: 15900 nM
Temozolomide
  AUC: 0.993
  IC50: > 30000 nM
IPA-3
  AUC: 0.882
  IC50: 24000 nM
CI-1040
  AUC: 0.971
  IC50: > 10000 nM
ZG-10
  AUC: 0.834
  IC50: 5030 nM
Rapamycin
  AUC: 0.917
  IC50: > 100 nM

## MC-CAR (haematopoietic neoplasm, suspension)
Z-LLNle-CHO
  AUC: 0.748
  IC50: 750 nM
JW-7-52-1
  AUC: 0.769
  IC50: 406 nM
XL-880
  AUC: 0.489
  IC50: 300 nM
Tubastatin A
  AUC: 0.861
  IC50: 14000 nM
Temozolomide
  AUC: 0.976
  IC50: > 30000 nM
IPA-3
  AUC: 0.667
  IC50: 5510 nM
CI-1040
  AUC: 0.904
  IC50: > 10000 nM
ZG-10
  AUC: 0.63
  IC50: 1370 nM
Rapamycin
  AUC: 0.981
  IC50: > 100 nM

## Mo-T (hairy cell leukaemia, suspension)
Z-LLNle-CHO
  AUC: 0.823
  IC50: 1550 nM
JW-7-52-1
  AUC: 0.982
  IC50: > 1200 nM
XL-880
  AUC: 0.848
  IC50: 3930 nM
Tubastatin A
  AUC: 0.927
  IC50: > 20000 nM
Temozolomide
  AUC: 0.939
  IC50: > 30000 nM
IPA-3
  AUC: 0.774
  IC50: 12800 nM
CI-1040
  AUC: 0.775
  IC50: 4050 nM
ZG-10
  AUC: 0.845
  IC50: 7460 nM
Rapamycin
  AUC: 0.988
  IC50: > 100 nM

## PL-21 (acute myeloid leukaemia, suspension)
Z-LLNle-CHO
  AUC: 0.832
  IC50: 2020 nM
JW-7-52-1
  AUC: 0.523
  IC50: 87.4 nM
XL-880
  AUC: 0.692
  IC50: 1220 nM
Tubastatin A
  AUC: 0.866
  IC50: > 20000 nM
Temozolomide
  AUC: 0.961
  IC50: > 30000 nM
IPA-3
  AUC: 0.979
  IC50: > 32000 nM
CI-1040
  AUC: 0.475
  IC50: 528 nM
ZG-10
  AUC: 0.712
  IC50: 2780 nM
Rapamycin
  AUC: 0.719
  IC50: 29.3 nM

## RPMI-8402 (T-cell lymphoblastic leukaemia, suspension)
Z-LLNle-CHO
  AUC: 0.797
  IC50: 991 nM
JW-7-52-1
  AUC: 0.522
  IC50: 85.3 nM
XL-880
  AUC: 0.538
  IC50: 399 nM
Tubastatin A
  AUC: 0.762
  IC50: 6100 nM
Temozolomide
  AUC: 0.981
  IC50: > 30000 nM
IPA-3
  AUC: 0.646
  IC50: 4720 nM
CI-1040
  AUC: 0.974
  IC50: > 10000 nM
ZG-10
  AUC: 0.635
  IC50: 1380 nM
Rapamycin
  AUC: 0.668
  IC50: 16.8 nM

## NCI-H716 (large intestine, suspension)
Z-LLNle-CHO
  AUC: 0.961
  IC50: > 2560 nM
JW-7-52-1
  AUC: 0.969
  IC50: > 1200 nM
XL-880
  AUC: 0.463
  IC50: 247 nM
Tubastatin A
  AUC: 0.942
  IC50: > 20000 nM
Temozolomide
  AUC: 0.971
  IC50: > 30000 nM
IPA-3
  AUC: 0.976
  IC50: > 32000 nM
CI-1040
  AUC: 0.365
  IC50: 241 nM
ZG-10
  AUC: 0.751
  IC50: 4060 nM
Rapamycin
  AUC: 0.924
  IC50: > 100 nM

## BE-13 (lymphoblastic leukaemia, suspension)
Z-LLNle-CHO
  AUC: 0.606
  IC50: 306 nM
JW-7-52-1
  AUC: 0.413
  IC50: 44.2 nM
XL-880
  AUC: 0.409
  IC50: 184 nM
Tubastatin A
  AUC: 0.756
  IC50: 6450 nM
Temozolomide
  AUC: 0.983
  IC50: > 30000 nM
IPA-3
  AUC: 0.877
  IC50: 28600 nM
CI-1040
  AUC: 0.819
  IC50: 5220 nM
ZG-10
  AUC: 0.4
  IC50: 338 nM
Rapamycin
  AUC: 0.332
  IC50: 2.21 nM

## Becker (glioma, adherent)
Z-LLNle-CHO
  AUC: 0.862
  IC50: > 2560 nM
JW-7-52-1
  AUC: 0.447
  IC50: 52.8 nM
XL-880
  AUC: 0.676
  IC50: 1060 nM
Tubastatin A
  AUC: 0.983
  IC50: > 20000 nM
Temozolomide
  AUC: 0.967
  IC50: > 30000 nM
IPA-3
  AUC: 0.984
  IC50: > 32000 nM
CI-1040
  AUC: 0.903
  IC50: > 10000 nM
ZG-10
  AUC: 0.747
  IC50: 3540 nM
Rapamycin
  AUC: 0.653
  IC50: 17.6 nM

## NCI-H1694 (small cell lung carcinoma, suspension)
Z-LLNle-CHO
  AUC: 0.923
  IC50: > 2560 nM
JW-7-52-1
  AUC: 0.802
  IC50: 585 nM
XL-880
  AUC: 0.76
  IC50: 1800 nM
Tubastatin A
  AUC: 0.89
  IC50: > 20000 nM
Temozolomide
  AUC: 0.962
  IC50: > 30000 nM
IPA-3
  AUC: 0.968
  IC50: > 32000 nM
CI-1040
  AUC: 0.956
  IC50: > 10000 nM
ZG-10
  AUC: 0.605
  IC50: 1220 nM
Rapamycin
  AUC: 0.941
  IC50: > 100 nM
